# According to article PMC4336329 (PLoS ONE, 2015):
# The campaign covered roughly 310,000 compounds. About 14,000 (4.5%) showed an effect of 50% or more. The effect is printed as a negative number. The list shows a part of the results.
# Biological target: human ether-à-go-go-related gene (hERG) potassium channel (human, UniProt Q12809)
# Experiment: primary screen, population patch clamp on CHO cells stably expressing hERG
# 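Note: peak tail current of the secondary pulse compared with the same well before compound.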
# Chain of human ether-à-go-go-related gene (hERG) potassium channel (Q12809 whole entry, looked up): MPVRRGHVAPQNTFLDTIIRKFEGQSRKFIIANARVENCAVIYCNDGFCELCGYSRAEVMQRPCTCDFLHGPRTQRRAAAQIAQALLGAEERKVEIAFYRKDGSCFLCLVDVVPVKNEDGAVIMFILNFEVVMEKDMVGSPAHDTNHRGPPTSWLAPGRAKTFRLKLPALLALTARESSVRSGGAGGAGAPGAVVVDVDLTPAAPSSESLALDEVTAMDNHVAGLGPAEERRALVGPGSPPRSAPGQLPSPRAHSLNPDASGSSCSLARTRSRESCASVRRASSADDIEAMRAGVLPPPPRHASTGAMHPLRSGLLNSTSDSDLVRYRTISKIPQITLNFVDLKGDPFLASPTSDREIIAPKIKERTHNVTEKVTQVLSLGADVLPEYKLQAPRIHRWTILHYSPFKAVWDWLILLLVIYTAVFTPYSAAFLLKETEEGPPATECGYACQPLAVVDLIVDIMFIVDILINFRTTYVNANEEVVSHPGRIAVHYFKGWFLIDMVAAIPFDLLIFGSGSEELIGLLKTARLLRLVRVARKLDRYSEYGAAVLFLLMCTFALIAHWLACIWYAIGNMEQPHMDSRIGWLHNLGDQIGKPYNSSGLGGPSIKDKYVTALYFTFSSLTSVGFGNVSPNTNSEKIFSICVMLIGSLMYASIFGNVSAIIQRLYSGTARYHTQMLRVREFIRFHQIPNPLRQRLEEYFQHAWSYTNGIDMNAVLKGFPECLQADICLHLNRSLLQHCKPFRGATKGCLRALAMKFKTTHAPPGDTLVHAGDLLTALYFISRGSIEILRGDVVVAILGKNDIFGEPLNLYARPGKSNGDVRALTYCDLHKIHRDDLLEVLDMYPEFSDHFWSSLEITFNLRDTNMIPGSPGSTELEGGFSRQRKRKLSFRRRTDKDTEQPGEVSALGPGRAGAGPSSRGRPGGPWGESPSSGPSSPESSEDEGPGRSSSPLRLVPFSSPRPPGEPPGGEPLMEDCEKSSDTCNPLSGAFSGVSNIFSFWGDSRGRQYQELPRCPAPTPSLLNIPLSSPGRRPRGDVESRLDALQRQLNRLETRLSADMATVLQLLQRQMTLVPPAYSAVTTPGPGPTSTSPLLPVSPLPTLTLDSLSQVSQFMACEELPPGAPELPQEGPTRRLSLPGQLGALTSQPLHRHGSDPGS
row,SMILES,"hERG current change (%, negative = inhibition) at 10uM"
1,CC(C)CN(C(=O)Cn1c(C(F)(F)F)nc2ccccc21)C1CCS(=O)(=O)C1 (stereo not shown),-9.53%
2,COCCNC(=O)c1onc(CSc2ccc(F)c(F)c2)c1C(=O)O,-1.38%
3,CCOc1cc2[nH]c(=S)n(CCN3CCCCC3CC)c(=O)c2cc1OCC (stereo not shown),-44.5%
4,CC(=O)c1c(C)[nH]c(C(=O)CSc2nnc(C)s2)c1C,13.9%
5,Cn1c(=O)c2cc3ccc(Cl)cc3nc2n(C)c1=O,6.69%
6,S=c1[nH]nc(-c2cccc(Cl)c2)n1/N=C/c1ccco1,4.37%
7,COC(=O)c1ccccc1NC(=O)/C=C/C(=O)O,-8.47%
8,Br.CCOc1ccc(N=c2scc(-c3ccc(OC)cc3)n2CCO)cc1,15.8%
9,CC(=O)NNC(=O)c1cc2sccc2s1,2.9%
10,Cc1cc(NS(=O)(=O)c2ccc(NC(=O)CCCOc3ccc(Cl)cc3)cc2)no1,15.1%
11,Cc1[nH]nc2c1C(c1ccc(OC(=O)c3ccco3)cc1)C(C#N)=C(N)O2 (stereo not shown),9.84%
12,Cc1cc(C)c(S(=O)(=O)Nc2ccc(O)c(Sc3ncn[nH]3)c2)c(C)c1,4.49%
13,Cc1cccn2c(=O)c(/C=C(\C#N)C(N)=O)c(N3CCCCCC3)nc12,-13.2%
14,COc1ccc(C(=O)O/N=C(/C)c2cccs2)cc1,7.41%
15,Cc1cc2c(OCC(O)CN3CCCCC3)cccc2[nH]1 (stereo not shown),-3.76%
16,COc1ccc(C2NC(c3ccc(OC)cc3)C(C)C(=O)C2C)cc1 (stereo not shown),-4.47%
17,CC1Cc2ccccc2C(=O)N1 (stereo not shown),9.73%
18,N#Cc1ccccc1CN1C(=O)S/C(=C/c2cccn2-c2ccc(C(=O)O)cc2)C1=O,0.594%
19,O=C(COC(=O)c1ccc(O)cc1O)Nc1cccc2ccccc12,-20.8%
20,Cc1ccc(-c2ccc(/C=N/N3C(=O)C4C5C=CC(CC5)C4C3=O)o2)c([N+](=O)[O-])c1 (stereo not shown),-16.7%
21,CC(OC(=O)Cc1coc2cc3c(cc12)CCC3)C(=O)NC(N)=O (stereo not shown),11.1%
22,COc1ccc(C2C(C#N)=C(N)OC3=C2C(=O)CC(C)C3)c(OC)c1OC (stereo not shown),-3.9%

row,SMILES,"hERG current change (%, negative = inhibition) at 10uM"
1,Cc1ccc2c(c1)N(CC(=O)Nc1c(C)cccc1C)C(=O)c1cccnc1O2,11.5%
2,COc1ccc(OCC(O)Cn2c(=N)n(CCN3CCCCC3)c3ccccc32)cc1.Cl (stereo not shown),-68.1%
3,CC(=O)c1cccc(Nc2cc(C)nc3ccccc23)c1.Cl,-64%
4,CCSc1ccc2c(c1)N(CCCN1CCN(C)CC1)c1ccccc1S2.O=C(O)CC(O)C(=O)O,-54.2%
5,CCOC(=O)[C@@H]1[C@H]2COc3ccc(Br)cc3[C@@H]2N2C(=O)N(c3ccc(Cl)cc3)C(=O)[C@]12C,0.415%
6,Cc1ccc(NC(=O)C2CCCO2)cc1[N+](=O)[O-] (stereo not shown),-6.23%
7,NC(=O)CSc1nnc(Cn2c(=O)sc3ccccc32)n1-c1ccccc1,-2.13%
8,COc1ccc(Cc2nnc(SCc3nc4ccccc4c(=O)[nH]3)o2)cc1,9.59%
9,Cc1cc(/C=N/NC(=O)C(=O)NCc2ccccn2)c(C)n1-c1ccccc1,-14.4%
10,CCOC(=O)C(C(=O)OCC)C(C(=O)OCC)N1CCOCC1 (stereo not shown),6.49%
11,COc1cccc(OCc2nc3c4cnn(-c5ccccc5)c4ncn3n2)c1,10.6%
12,COc1cc(C(=O)Nc2ccc([N+](=O)[O-])cn2)cc(OC)c1OC,-3.7%
13,O=C(O)c1ccc(S(=O)(=O)Nc2ccc(O)c(Sc3nc4ccccc4s3)c2)cc1,23.4%
14,Clc1ccc(CN2CCN(/N=C/c3cccnc3)CC2)cc1,-17.2%
15,COC(=O)c1ccc(N2CCN(c3ccccc3)CC2)nc1,-0.407%
16,Cc1cccc(Cn2nc(-n3cccc3)c3c(C)cc(C)nc32)c1,14.8%
17,C=CCN(c1ccccc1)S(=O)(=O)c1ccc2[nH]cc(C(=O)NCCOC)c(=O)c2c1,6.89%
18,COc1ccc(/[N+]([O-])=C/c2ccco2)cc1,11.9%
19,Cc1cc(C)cc(NC(=S)N2CCC(NC(=O)c3ccc(F)cc3)CC2)c1,11.5%
20,CCOC(=O)c1cc(C(=O)Nc2cccc(C)c2)nn1C,9.84%
21,CCC(C)NC(=O)CNC(=O)c1nn(-c2ccc(OC)cc2OC)c(=O)c2ccccc12 (stereo not shown),24.1%
22,CCCCCCOC(=O)Cc1c(C)nc(-c2ccccc2)[nH]c1=O,-5.35%

row,SMILES,"hERG current change (%, negative = inhibition) at 10uM"
1,CCc1ccc(NC(=O)CNC(=O)[C@@H]2Cc3ccccc3CN2)cc1,-19.9%
2,C/C(=N\NC(=O)COc1ccc(C)cc1C(C)C)c1cc2ccccc2o1,7.44%
3,COc1ccc(CC(=O)N/N=C/C=C/c2cccc([N+](=O)[O-])c2)cc1OC,-14.8%
4,Cc1ccc([C@H]2C(C#N)=C(N)Oc3cc(C)oc(=O)c32)o1,12.5%
5,O=C(Nc1ccc(Cc2ccncc2)cc1)C1CC1,5.9%
6,C/C(=N/NS(=O)(=O)c1ccc(Cl)cc1)c1ccncc1,-10.1%
7,Cc1cc(C)nc(Nc2ccccc2F)n1.Cl,13.6%
8,Cc1cccn2c(=O)c3cc(S(=O)(=O)c4ccc(Br)cc4)c(=N)n(C4CCCCC4)c3nc12,18.6%
9,O=C(COC(=O)Cc1ccsc1)Nc1ccc(Cl)c(S(=O)(=O)N2CCOCC2)c1,-32.9%
10,CC(NS(=O)(=O)c1ccc(Br)cc1)C(=O)NC1CCCCCC1 (stereo not shown),5.35%
11,COc1cc2c(cc1OC)C(c1ccc3c(c1)OCO3)C1=C(CC(C)(C)CC1=O)N2 (stereo not shown),-12.2%
12,Cc1ccccc1CNC(=O)c1ccccc1C,4.19%
13,Cc1ccc(/C=C(/C#N)c2nc(CCN3C(=O)c4ccccc4C3=O)cs2)cc1,21.6%
14,O=C(CSc1nnc(NC(=O)c2ccc(F)cc2)s1)NC1CCCC1,2.36%
15,Cc1[nH]c(C(=O)O)c(C)c1C(=O)OC(C)C,-7.42%
16,O=[N+]([O-])c1ccc(NC(=S)N2CCc3ccccc32)cc1,-2.01%
17,Cc1cccc(-n2nc3c(c2NC(=O)CCCl)CSC3)c1,-10.1%
18,COC(=O)c1ccc(/C=N/N2CCN(Cc3ccccc3)CC2)cc1,-0.0709%
19,O=C(NCCSCc1ccccc1)c1cc(S(=O)(=O)N2CCOCC2)ccc1F,-21.3%
20,CC(C)CCNC(=O)[C@H](CC(C)C)NC(=O)[C@H]1O[C@@H]1C(=O)O,30.7%
21,O=C(O)C(=O)O.O=C(c1ccncc1)N1CCN(C2CCCCC2)CC1,-23.4%
22,O=C(COc1ccccc1)N=C1SC2CS(=O)(=O)CC2N1c1ccc(F)cc1 (stereo not shown),15.3%

row,SMILES,"hERG current change (%, negative = inhibition) at 10uM"
1,Cc1ccc(NS(=O)(=O)c2cccc3cccnc23)c(Cl)c1,7.81%
2,Cc1cccc(NC(=O)CSc2nc(N)c(NC(=O)c3cccs3)c(=O)[nH]2)c1C,6.28%
3,COc1ccc(S(=O)(=O)N(C)CC(=O)NCCC2=CCCCC2)cc1,10.5%
4,O=S1(=O)CCC(NCC2CCCO2)C1 (stereo not shown),4.98%
5,CSc1ccccc1OCc1cc(C(=O)N2CCC(Oc3cccnc3)CC2)no1,-37.4%
6,CC(OC(=O)c1ccc(Br)o1)C(=O)Nc1ccc2c(c1)OCCO2 (stereo not shown),-11.1%
7,CC(=O)N/N=C(\C)c1ccc2c(c1)OCCO2,11%
8,COC(=O)CSc1nc(C2CC2)cc(C(F)(F)F)c1C#N,-3.56%
9,Cc1ccc(-c2c(C(=O)N3CCOCC3)oc(=O)c3ccccc23)cc1,-17.8%
10,Cc1ccc(S(=O)(=O)N(C)CC(=O)Nc2ccncc2)cc1,-8.2%
11,CCCn1c(SCC(=O)Nc2ccccc2N2CCCCC2)nc2c1c(=O)n(C)c(=O)n2C,-29.9%
12,COc1ccc(-c2cc(C(F)F)n3ncc(C(=O)NCCCN4CCCC4=O)c3n2)cc1,-40.5%
13,O=S(=O)(NCc1ccco1)c1cccc(S(=O)(=O)N2CCOCC2)c1,-21.7%
14,O=c1[nH]c(C2CCN(S(=O)(=O)c3ccccc3C(F)(F)F)CC2)nc2c1nnn2Cc1cccc(F)c1,3.83%
15,CCn1c(COc2ccccc2)nnc1SCC(=O)NC1CCCCC1,9.54%
16,COc1cc(/C=N/NC(=O)c2cc[n+]([O-])cc2)ccc1O,21.8%
17,CCN(C(=O)C(C)OC(=O)CCCNC(=O)c1ccc(Cl)cc1)c1ccccc1 (stereo not shown),-25.1%
18,CSCC[C@H](NC(=O)N1CCn2c1nc1ccccc12)C(=O)NCc1ccc2c(c1)OCO2,-32.4%
19,Cc1cc(OCCCCCNCCO)cc(C)c1Cl,-28.9%
20,COc1ccc(CNC(=O)C2CCCN(c3ncnc4c3nc3n4CCCCC3)C2)cc1 (stereo not shown),-37.6%
21,O=C1CCC(=O)N1CCCCCc1nc(-c2ccccc2)no1,2.45%
22,CC(C)CN(C(=O)COC(=O)CCc1c[nH]c2ccccc12)C1CCS(=O)(=O)C1 (stereo not shown),-17.3%
